# Results reported in the supplement of paper PMC8728848.
# The other results are listed elsewhere or left out.
# B1: SRA-1 (Homo sapiens), P21757 (protein)
# chain: MEQWDHFHNQQEDTDSCSESVKFDARSMTALLPPNPKNSPSLQEKLKSFKAALIALYLLVFAVLIPLIGIVAAQLLKWETKNCSVSSTNANDITQSLTGKGNDSEEEMRFQEVFMEHMSNMEKRIQHILDMEANLMDTEHFQNFSMTTDQRFNDILLQLSTLFSSVQGHGNAIDEISKSLISLNTTLLDLQLNIENLNGKIQENTFKQQEEISKLEERVYNVSAEIMAMKEEQVHLEQEIKGEVKVLNNITNDLRLKDWEHSQTLRNITLIQGPPGPPGEKGDRGPTGESGPRGFPGPIGPPGLKGDRGAIGFPGSRGLPGYAGRPGNSGPKGQKGEKGSGNTLTPFTKVRLVGGSGPHEGRVEILHSGQWGTICDDRWEVRVGQVVCRSLGYPGVQAVHKAAHFGQGTGPIWLNEVFCFGRESSIEECKIRQWGTRACSHSEDAGVTCTL
# Tests used:
# Experiment in all cases: glycan array binding signal (z-score within array); higher = stronger binding
# Conditions in all cases: glycan notation: IUPAC condensed, linker removed
# [1] = target: Gal(b1-4)GalNAc(b1-3)[Fuc(a1-2)]Gal(b1-4)GlcNAc
# In short: (§1)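 Glycan array binding is given as a within-array Z-score, which can be read as non-binding when negative. The arrays, 3228 of them, came from the Consortium for Functional Glycomics database and were retained only where the protein sequence was available. Z-scores were averaged across arrays of the same protein sequence at different concentrations or buffers and across linkers.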
# [2] = target: Gal(b1-4)Glc
# In short: as §1
# [3] = target: Gal(b1-4)Glc6S
# In short: as §1
# [4] = target: Gal(b1-4)GlcNAc
# In short: as §1
# [5] = target: Gal(b1-4)GlcNAc(a1-6)Gal(b1-4)GlcNAc
# In short: as §1
# [6] = target: Gal(b1-4)GlcNAc(b1-2)Man
# In short: as §1
# [7] = target: Gal(b1-4)GlcNAc(b1-2)Man(a1-3)Man(b1-4)GlcNAc(b1-4)GlcNAc
# In short: as §1
# [8] = target: Gal(b1-4)GlcNAc(b1-2)Man(a1-3)[Gal(b1-4)GlcNAc(b1-2)Man(a1-6)]Man(b1-4)GlcNAc(b1-4)GlcNAc
# In short: as §1
# [9] = target: Gal(b1-4)GlcNAc(b1-2)Man(a1-3)[Gal(b1-4)GlcNAc(b1-2)Man(a1-6)]Man(b1-4)GlcNAc(b1-4)[Fuc(a1-6)]GlcNAc
# In short: as §1
# [10] = target: Gal(b1-4)GlcNAc(b1-2)Man(a1-3)[Gal(b1-4)GlcNAc(b1-2)Man(a1-6)][Gal(b1-4)GlcNAc(b1-4)]Man(b1-4)GlcNAc(b1-4)[Fuc(a1-6)]GlcNAc
# In short: as §1
# [11] = target: Gal(b1-4)GlcNAc(b1-2)Man(a1-3)[Gal(b1-4)GlcNAc(b1-2)Man(a1-6)][GlcNAc(b1-4)]Man(b1-4)GlcNAc(b1-4)[Fuc(a1-6)]GlcNAc
# In short: as §1
# [12] = target: Gal(b1-4)GlcNAc(b1-2)Man(a1-3)[GlcNAc(b1-2)Man(a1-6)]Man(b1-4)GlcNAc(b1-4)GlcNAc
# In short: as §1
# [13] = target: Gal(b1-4)GlcNAc(b1-2)Man(a1-3)[GlcNAc(b1-4)][Gal(b1-4)GlcNAc(b1-2)Man(a1-6)]Man(b1-4)GlcNAc(b1-4)GlcNAc
# In short: as §1
# [14] = target: Gal(b1-4)GlcNAc(b1-2)Man(a1-3)[Man(a1-6)]Man(b1-4)GlcNAc(b1-4)GlcNAc
# In short: as §1
# [15] = target: Gal(b1-4)GlcNAc(b1-2)Man(a1-6)Man(b1-4)GlcNAc(b1-4)GlcNAc
# In short: as §1
# [16] = target: Gal(b1-4)GlcNAc(b1-2)Man(a1-6)[GlcNAc(b1-2)Man(a1-3)]Man(b1-4)GlcNAc(b1-4)GlcNAc
# In short: as §1
# [17] = target: Gal(b1-4)GlcNAc(b1-2)Man(a1-6)[Man(a1-3)]Man(b1-4)GlcNAc(b1-4)GlcNAc
# In short: as §1
# [18] = target: Gal(b1-4)GlcNAc(b1-2)[Gal(b1-4)GlcNAc(b1-4)]Man(a1-3)[Gal(b1-4)GlcNAc(b1-2)Man(a1-6)]Man(b1-4)GlcNAc(b1-4)GlcNAc
# In short: as §1
# [19] = target: Gal(b1-4)GlcNAc(b1-2)[Gal(b1-4)GlcNAc(b1-4)]Man(a1-3)[Gal(b1-4)GlcNAc(b1-2)[Gal(b1-4)GlcNAc(b1-6)]Man(a1-6)]Man(b1-4)GlcNAc(b1-4)GlcNAc
# In short: as §1
# [20] = target: Gal(b1-4)GlcNAc(b1-2)[Gal(b1-4)GlcNAc(b1-4)]Man(a1-3)[GlcNAc(b1-4)][Gal(b1-4)GlcNAc(b1-2)Man(a1-6)]Man(b1-4)GlcNAc(b1-4)GlcNAc
# In short: as §1
# [21] = target: Gal(b1-4)GlcNAc(b1-2)[Gal(b1-4)GlcNAc(b1-4)]Man(a1-3)[GlcNAc(b1-4)][Gal(b1-4)GlcNAc(b1-2)[Gal(b1-4)GlcNAc(b1-6)]Man(a1-6)]Man(b1-4)GlcNAc(b1-4)GlcNAc
# In short: as §1
# [22] = target: Gal(b1-4)GlcNAc(b1-2)[Gal(b1-4)GlcNAc(b1-6)]Man(a1-6)[Gal(b1-4)GlcNAc(b1-2)Man(a1-3)]Man(b1-4)GlcNAc(b1-4)GlcNAc
# In short: as §1
binder,measurement,setting,value
B1,glycan array binding signal (z-score),[1],-0.216
same,glycan array binding signal (z-score),[2],-0.576
same,glycan array binding signal (z-score),[3],-0.026
same,glycan array binding signal (z-score),[4],0.547
same,glycan array binding signal (z-score),[5],0.031
same,glycan array binding signal (z-score),[6],0.245
same,glycan array binding signal (z-score),[7],-0.332
same,glycan array binding signal (z-score),[8],-0.312
same,glycan array binding signal (z-score),[9],-0.1
same,glycan array binding signal (z-score),[10],-0.315
same,glycan array binding signal (z-score),[11],0.095
same,glycan array binding signal (z-score),[12],-0.289
same,glycan array binding signal (z-score),[13],-0.5
same,glycan array binding signal (z-score),[14],-0.474
same,glycan array binding signal (z-score),[15],-0.572
same,glycan array binding signal (z-score),[16],-0.542
same,glycan array binding signal (z-score),[17],-0.142
same,glycan array binding signal (z-score),[18],-0.571
same,glycan array binding signal (z-score),[19],-0.604
same,glycan array binding signal (z-score),[20],-0.198
same,glycan array binding signal (z-score),[21],-0.624
same,glycan array binding signal (z-score),[22],-0.419
